The antibiotic and cytotoxicity screens of Wong et al. (2023)
The other results are listed elsewhere or left out.

System: S. aureus RN4220
Assay: growth inhibition call (relative growth <= 0.2)
Conditions: 50 µM

Structure (SMILES) | growth inhibition call
COc1ccc(S(=O)(=O)N(C)C[C@H]2Oc3c(NC(=O)NC(C)C)cccc3C(=O)N([C@@H](C)CO)C[C@H]2C)cc1 | inactive
C[C@H]1CN([C@@H](C)CO)C(=O)c2cc(NC(=O)NC3CCCCC3)ccc2O[C@H]1CN(C)S(C)(=O)=O | inactive
Cc1noc(C)c1S(=O)(=O)N(C)C[C@@H]1OCCCC[C@H](C)Oc2ccc(NS(C)(=O)=O)cc2C(=O)N([C@H](C)CO)C[C@@H]1C | inactive
C[C@@H]1CN([C@@H](C)CO)C(=O)Cc2cc(NC(=O)Cc3ccccc3)ccc2O[C@@H]1CN(C)Cc1ccc(Cl)c(Cl)c1 | inactive
CC(=O)N1[C@@H]2Cn3c(cccc3=O)[C@H]1[C@@H](C(=O)N1CCc3ccccc3C1)[C@@H]2CO | inactive
C[C@H](CO)N1C[C@H](C)[C@@H](CN(C)S(=O)(=O)c2ccc(Cl)cc2)Oc2ccc(NS(=O)(=O)c3cn(C)cn3)cc2CC1=O | inactive
Cc1ccc(S(=O)(=O)Nc2ccc3c(c2)C(=O)N([C@@H](C)CO)C[C@@H](C)[C@@H](CN(C)C(=O)Nc2ccc(F)cc2)OCCCC[C@H](C)O3)cc1 | inactive
C[C@@H]1CN([C@@H](C)CO)S(=O)(=O)c2ccc(C#Cc3cccnc3)cc2O[C@H]1CN(C)C(=O)Nc1ccc2c(c1)OCO2 | inactive
CC(C)NC(=O)N(C)C[C@H]1Oc2ccc(NC(=O)C3CCCCC3)cc2C(=O)N([C@@H](C)CO)C[C@@H]1C | inactive
Cc1ccc(S(=O)(=O)N(C)C[C@@H]2OCCCC[C@H](C)Oc3ccc(NC(=O)CCC(F)(F)F)cc3C(=O)N([C@H](C)CO)C[C@H]2C)cc1 | inactive
C[C@@H]1CN([C@@H](C)CO)C(=O)Cc2cc(NC(=O)c3ccncc3)ccc2O[C@H]1CN(C)S(=O)(=O)c1ccc(Cl)cc1 | inactive
C[C@@H]1CCCCO[C@H](CN(C)S(=O)(=O)c2ccccc2)[C@@H](C)CN([C@H](C)CO)C(=O)c2cc(NC(=O)CCC(F)(F)F)ccc2O1 | inactive
Cc1ccc(S(=O)(=O)Nc2ccc3c(c2)C(=O)N([C@@H](C)CO)C[C@@H](C)[C@@H](CN(C)C(=O)Nc2ccccc2)OCCCC[C@@H](C)O3)cc1 | inactive
COc1ccc(S(=O)(=O)N(C)C[C@H]2OCCCC[C@H](C)Oc3ccc(NC(=O)Nc4ccc(F)cc4)cc3C(=O)N([C@@H](C)CO)C[C@H]2C)cc1 | inactive
C[C@@H]1CN([C@@H](C)CO)C(=O)Cc2cc(NC(=O)CCCCCC(=O)Nc3ccccc3N)ccc2O[C@@H]1CN(C)C(=O)Nc1ccc(C(F)(F)F)cc1 | inactive
C[C@@H]1CN([C@H](C)CO)C(=O)Cc2cc(NC(=O)Cn3cnnn3)ccc2O[C@H]1CN(C)C(=O)NC1CCCCC1 | inactive
COCC#Cc1ccc2c(c1)O[C@@H](CN(C)S(=O)(=O)c1ccc(C)cc1)[C@H](C)CN([C@H](C)CO)S2(=O)=O | inactive
NC(=O)CSc1ncn(-c2ccccc2)n1 | inactive
C[C@@H]1CN([C@H](C)CO)C(=O)c2cccc(NC(=O)C3CCOCC3)c2O[C@@H]1CN(C)Cc1ccccc1 | inactive
C[C@@H]1CN([C@@H](C)CO)S(=O)(=O)c2ccc(C#C[C@@H](C)O)cc2O[C@H]1CN(C)C(=O)C1CCCCC1 | inactive

Structure (SMILES) | growth inhibition call
CCn1cnc(C(=O)NC)c1C(=O)NC | inactive
COc1ccc(NC(=O)Nc2ccc3c(c2)[C@@H]2C[C@@H](CC(=O)N4CCN(C)CC4)O[C@H](CO)[C@@H]2O3)cc1 | inactive
O=C1NCCN1c1ncc([N+](=O)[O-])s1 | inactive
COc1ccc(NC(=O)Nc2ccc3c(c2)CC(=O)N([C@@H](C)CO)C[C@H](C)[C@@H](CN(C)CC2CCCCC2)O3)cc1 | inactive
OC[C@H]1O[C@@H](Oc2c[nH]c3ccccc23)[C@H](O)[C@@H](O)[C@@H]1O | inactive
O=C(C[C@H]1CC[C@@H]2[C@H](COC[C@H](O)CN2S(=O)(=O)c2ccc(Cl)cc2)O1)NCCN1CCCCC1 | inactive
CCOC(=O)OC[C@@H]1[C@@H]2NC(=O)N(C)[C@@]1(COC(=O)NCCCCCC(=O)NO)Oc1ccccc12 | inactive
C[C@@H]1CCCCO[C@@H](CN(C)Cc2ccc(C(=O)O)cc2)[C@@H](C)CN([C@@H](C)CO)C(=O)c2cc(NS(=O)(=O)c3ccc(Cl)cc3)ccc2O1 | inactive
C[C@@H]1CN([C@@H](C)CO)C(=O)Cc2cc(NC(=O)Nc3ccc4c(c3)OCO4)ccc2O[C@@H]1CN(C)C(=O)Nc1cccc2ccccc12 | inactive
C[C@H](CO)N1C[C@H](C)[C@H](CN(C)Cc2ccccc2)Oc2ccc(NC(=O)Nc3ccc(C(F)(F)F)cc3)cc2C1=O | active
COc1ccc(S(=O)(=O)Nc2ccc3c(c2)C(=O)N([C@H](C)CO)C[C@@H](C)[C@H](CN(C)S(=O)(=O)c2cn(C)cn2)OCCCC[C@@H](C)O3)cc1 | inactive
C[C@@H]1CN([C@H](C)CO)C(=O)Cc2cc(NC(=O)Nc3ccc(F)cc3)ccc2O[C@H]1CN(C)S(=O)(=O)c1cn(C)cn1 | inactive
Cc1ccccc1S(=O)(=O)N1C[C@H](O)COC[C@H]2O[C@@H](CC(=O)N3CCC(Cc4ccccc4)CC3)CC[C@@H]21 | inactive
CC(=O)NCC(=O)N1C[C@H](N(C)Cc2cncnc2)[C@@H]2OCCC[C@@H]21 | inactive
C[C@H](CO)N1C[C@H](C)[C@H](CN(C)S(=O)(=O)c2cn(C)cn2)Oc2cc(C#Cc3ccccc3)ccc2S1(=O)=O | inactive
C[C@@H]1CN([C@H](C)CO)C(=O)c2cc(NC(=O)CCC(F)(F)F)ccc2O[C@H]1CN(C)Cc1ccc(-c2ccccc2)cc1 | inactive
CN(C)C(=O)C[C@H]1CC[C@H]2[C@@H](COC[C@H](O)CN2S(=O)(=O)c2ccccc2)O1 | inactive
CN1CCN(C(=O)C[C@@H]2CC[C@H]3[C@@H](COC[C@H](O)CN3Cc3ccc4c(c3)OCO4)O2)CC1 | inactive
CC=Cc1ccc2n(c1=O)C[C@H]1[C@H](CO)[C@@H](C(=O)NCCCN3CCOCC3)[C@@H]2N1Cc1cocn1 | inactive
Cc1ccc(S(=O)(=O)Nc2ccc3c(c2)CC(=O)N([C@H](C)CO)C[C@@H](C)[C@H](CN(C)S(=O)(=O)c2cn(C)cn2)O3)cc1 | inactive
